{"source": "the RNAGym collection of RNA variant scans (doi:10.7554/elife.90254)", "parents": {"B1": {"name": "OR4K15 (parent)", "chain": "GUUAACGGUCAUAGGCCAUGGAAACUAGGAGCACCAUUUCGCUGCCAGUGAAGAAAUGAACAAAGAAAAUCUGGGCCAGGCAGGCAUCAAAAGAAAUAGUCUUGCGCUCAACCAGAAAGUCUGUAAUCAUUUUAAGGGUA"}}, "note": "Read counts are not given, so values of variants with three or more changes are uncertain."}
{"variants_of": "B1", "test": "self-cleavage, relative activity (ratio to wild type); higher = more cleavage; in vitro, sequencing; the parent is a self-cleaving ribozyme"}
{"variant": "GUUAGCGGUCAUAGGCCAUGGAAACUAGGAGCGCCAUUUCGCUGCCAGUGAAGAAAUGAACAAAGAAAAUCUGGGCCAGGCAGGCAUCAAAAGAAAUAGUCUUGCGCUCGACCAGAAAGUCUGUAAUCAUUUUAAGGGUA", "self-cleavage": 0.15}
{"variant": "GUUAGCGGUCAUAGGCCAUGGAAACUAGGAGCACCAUUUCGCUGCCAGUGAAGGAAUGAACAAAGGAAAUCUGGGCCAGGCAGGCAUCAAAAGAAAUAGUCUUGCGCUCAACUAGAAAGUCUGUAAUCAUUUUAAGGGUA", "self-cleavage": 0.08}
{"variant": "GUUAGCGGUCAUAGGCCAUGGAAACUAGGGGCACCAUUUCGCUGCCAGUGAAGAAAUGAACAGGGAAAAUCUGGGCCAGGCAGGCAUCAAAAGAAAUAGUCUCGUGCUCAACCAGAAAGUCUGUAAUCAUUUUAAGGGUA", "self-cleavage": 0.08}
{"variant": "GUUAGCGGUCAUAGGCCAUGGAAACUAGGAGCUCCAUUUCGCUGCCAGUGAAGAAAUGAACGAAGAAAAUCUGGGCCAGGCAGGCAUCUAAAGAAAUAGUCUUGCACUCAACCAGAAAGUCUGUAAUCAUUUUAAGGGUA", "self-cleavage": 0.15}
{"variant": "GUUAGCGGUCAUAGGCCAUGGAAACUAGGAGCACCCUUUCGCUGCCAGUGAAGAAAUGAACAAAGAAAAUCUGGGCCAGGCAGGCGUCAAAAGAAAUAGUCUUGCGCUCAACCAGAAAGUCUGUAAUCAUUUUAAGGGUA", "self-cleavage": 0.88}
{"variant": "GUUAGCGGUCAUAGGCCAUGGAAACUAGGUGCGCCAUUUCGCAGCCAGUGAAGAAAUGAGCAAAGAAAAUCUGGGCCAGGCAGGCAUCAAGAGAAAUAGUCUUGCGCUCAACCAGAAAGUCUGUAAUCAUUUUAAGGGUA", "self-cleavage": 1.66}
{"variant": "GUUAGCGGUCAUAGGCCAUGGAAACUAGGAGCACCAUUUCGCUGCCAGUGAAGGAAUGAACAAAGAAAAUCAGGGCCAGGCAGGCAUCAAAAGAAAUAGUCUUGCGCUCAACCAGAAAGUCUGUAAUCAUUUUAAGGGUA", "self-cleavage": 0.39}
{"variant": "GUUAGCGGUCAUAGGCCAUGGAAACUAGGAGCACCAUUUCGCUGCCAGUGGAGAAAUGAACAAAGAAAAUCUGGGCCAGGCAGGCAUCAGAAGAAAUAGUCUUGCGCUCAACCAGAAAGUCCGUAAUCAUUUUAAGGGUA", "self-cleavage": 1.52}
{"variant": "GUUAGCGGUCAUAGGCCAUGGAAGCUAGGAGCACCAUUUCGCUGCCAGUGAAGAAAUGAACAAAGAAAAUCCGGGCCAGGCAGGCAUCAAAAGAAAUAGUCUUGCGCUCAACCAGAAAGUCUGUAAUCAUUUUAAGGGUA", "self-cleavage": 0.14}
{"variant": "GUUAGCGGUCAUAGGCCAUGGAAACUGGGAGCACCCUUUCGCUGCCAGUGAAGAAAUGAACAAAGAAAAUCUGGGCCAGGCAGGCAUCAAAAGAAAUAGUCUUGCGCUCAACCAGAAAGUCUGUAAUCAUUUUAAGGGUA", "self-cleavage": 0.52}
{"variant": "GUUAGCGGUCAUAGGCCAUGGAAACUAGGAGCACCAUUUCGCUGCCGGUGAAGAAAUGAACAAAGAAAAUCUGGGCCAGGCAGGCAUCAAAAGAAAUAGUCCUGCGCUCAACCAGAAAGUCUGUAAUCAUUUUAAGGGUA", "self-cleavage": 1.36}
{"variant": "GUUAGCGGUCAUAGGCCAUGGAAACUAGGAGCACCAUUUCGCUGCCAGUGAAGAGAUGAGCAAAGAAAAUCUGGGCCAGGCAGGCAUCAAAAGAAAUAGUCUCGCGCUCAACCAGAAAGUCUGUAAUCACUUUAAGGGUA", "self-cleavage": 0.45}
{"variant": "GUUAGCGGUCAUAGGCCAUGGAAACUAGGAGCACCAUUUCGCUGCCUGUGAAGAAAUGAACAAAGAAAAUCUGGGCCAGGCAGGCAUCAAAAGGAAUAGUCUUGCGCUCAACCGGAAAGUCUGUAAUCAUUUUAAGGGUA", "self-cleavage": 0.14}
{"variant": "GUUAGCGGUCAUAGGCCAUGGAAACUAGGAGCACCAUUUCGCUGCCAGUGAAGGAAUGAACAAAGAAAAUCUGGGCCAGGCAGGCAUCAAAAGAAAUAGUCUUGCGCUCAACCAGAAAGUCUGUAAUCAUUUUAGGGGUA", "self-cleavage": 1.07}
{"variant": "GUUAGCGGUCAUAGGCCAUGGAAACUAGGAGCACCAUUUCGCUGCCAGUGAAGGAAUGAACAAAGAAAAUCUGGGCCAGGCAGGCAUCAGAAGAAAUAGUCUUGCGCUCAACCAGAAAGUCUGUAAUCAUUUUAAGGGUA", "self-cleavage": 2.23}
{"variant": "GUUAGCGGUCAUAGGCCAUGGAAACUAGGAGCACCAUUUCGCUGCCAGUGAGGGAAUGAACAAAGAAAAUCUGGGCCAGGCAGGCAUCAAAAGAAAUAGUCUUGCGCUCAACCAGAAAGUCUGUAAUCAUUUUAAGGGUA", "self-cleavage": 1.23}
{"variant": "GUUAGCGGUCAUAGGCCAUGGAAACUGGGAGCACCAUUUCGCUGCCAGUGAAGAAAUGAACAAAGAAAAUCUGGGCCAGGCAGGCAUCAAAAGAAAUAGUCUUGCGCUCAACCGGAAAGUCUGUAAUCAUUUUAAGGGUA", "self-cleavage": 0.28}
{"variant": "GUUAGCGGUCAUAGGCCAUGGAAACUAGGAGCACCAUUUCGCUGCCAGUGAAGGAAUGAACAAAGAAAAUCUGGGCCAGGCAGGCAUCAAAAGAAAUAGUCUUGCGCUCAACCAGAAGGUCUGUAAUCAUUUUAAGGGUA", "self-cleavage": 0.63}
{"variant": "GUUAGCGGUCAUAGGCCAUGGAAGCUAGGAGCACCAUUUCGCUGCCAGCGAAGAAAUGAACAAAGAAAACCUGGGCCAGGCAGGCAUCAAAAGAAAUAGUCUUGCGCUCAACCAGAAAGUCUGUAAUCACUUUAAGGGUA", "self-cleavage": 0.18}
{"variant": "GUUAGCGGUCAUAGGCCAUGGAAACUAGGAGCUCCAUUUCGCUGCCAGUGAAGAAAUGAACAAAGAAAAUCUGGGCCAGGCAGGCAUCAAAAGAAAUAGUCCUGCGCUCAACCAGAAAGUCUGUAAUCAUUUUAAGGGUA", "self-cleavage": 1.64}
{"variant": "GUUAGCGGUCAUAGGCCAUGGAAACUAGGAGCACCAUUUCGCUGCCAGUGGAGAAAUGAACAAAGAGAAUCUGGGCCAGGCAGGCAUCAAAAGAAAUAGUCUUGCGCUCAACCAGAAAGUCUGUAAUCAUUUUAAGGGUA", "self-cleavage": 0.6}
{"variant": "GUUAGCGGUCAUAGGCCAUGGAAACUAGGAGCACCGUUUCGCUGCCAGUGAGGAAAUGAACAAAGAAAAUCUGGGCCAGGCAGGCAUCAAAAGAAAUAGUCUUGCGCUCAACCAGAAAGUCUGUAAUCAUUUUAAGGGUA", "self-cleavage": 1.73}
{"variant": "GUUAGCGGUCAUAGGCCAUGGAAACUAGGAGCACCAUUUCGCUGCCAGUGAAGAGAUGAACAAAGAAAAUCGGGGCCAGGCAGGCAUCAAAAGAAAUAGUCUUGCGCUCAACCAGAAAGUCUGUAAUCAUUUUAAGGGUA", "self-cleavage": 0.37}
{"variant": "GUUAGCGGUCAUAGGCCAUGGAAACUAGGAGCACCUUUCCGCUGCCAGUGAAGAAAUGAACAAAGGAAAUCUGGGCCAGGCAGGCAUCAAAAGAAAUAGCCUUGCGCUCAGCCAGAAAGUCUGUGACCAUUUUAAGGGUA", "self-cleavage": 0.01}
{"variant": "GUUAGCGGUCAUAGGCCAUGGAAGCCAGGAGCACCAUUUCGCUGCCAGUGAAGAAAUGGACAAAGAAAAUCUGGGCCAGGCAGGCAUCAAAAGAAAUAGUCUCGCGCUCAACCAGAAAGUCUGUAAUCAUUCUAAGGGUA", "self-cleavage": 0.25}
{"variant": "GUUAGCGGUCAUAGGCCAUGGAAACUAGGAGCACCAUUUCGCUGCCAGUGAAGGAAUGAACAAAGAGAAUCCGGGCCAGGCAGGCAUCAAAAGAAAUAGUCUUGCGCUCAACCAGAGAGUCUGUAAUCAUUUUAAGGGUA", "self-cleavage": 0.05}
{"variant": "GUUAGCGGUCAUAGGCCAUGGAAGCUAGGAGCACCAUUUCGCUGCCAGUGAAGAAAUGAACAAAGAAAAUCUGGGCCAGGCAGGCAUCAGAAGAAAUAGUCUUGCGCUCAACCAGAAAGUCUGCAAUCAUUUUAAGGGUA", "self-cleavage": 1.18}
{"variant": "GUUAGCGGUCAUAGGCCAUGGAAACUGGGAGCACCAUUUCGCUGCCAGUGAAGAAACGAACAAAGAAGGUCUGGGCCAGGCAGGCAUCAAAAGAAAUAGUCUUGCGCUCAACCAGAAAGUCUGUAAUCAUUUUAAGGGUA", "self-cleavage": 0.53}
{"variant": "GUUAGCGGUCAUAGGCCAUGGAAACUAGGAGCACCUUUUCGCUGCCAGUGGAGAAAUGUACAAAGAAAAUCUGGGCCAGGCAGGCAUCAGAAGAAAUAGUCUUGCGCUCAACCAGAAAGUCUGUAAUCAUUUUAAGGGUA", "self-cleavage": 0.37}
{"variant": "GUUAGCGGUCAUAGGCCAUGGAAACUAGGAGCACCAUUUCGCUGCCAGUGGAGAAAUGAACAAGGAGAAUCUGGGCCAGGCAGGCAUCAAAAGAAAUAGUCUUGCGCUCAACCAGAAAGUCUGUAAUCAUUUUAAGGGUA", "self-cleavage": 0.41}
{"variant": "GUUAGCGGUCAUAGGCCAUGGAAACUAGGAGCACCAUUUCGCUGCCAGUGAAGGAAUGAACAAAGAAAAUCUGGGCCAGGCAGGCAUCAAAAGAAAUAGUCUUGCGCCCAACCAGAAAGCCUGUAAUCAUUUUAAGGGUA", "self-cleavage": 0.04}
{"variant": "GUUAGCGGUCAUAGGCCAUGGAAACUAGGAGCACCAUUUCGCUGCCAGUGAAGAGAUGAACAAAGAAAAUCUGGGCCAGGCAGGCAUCAAAAGAGAUAGUCUUGCGCUCAACCAGAAAGUCUGUAAUCAUUUUAAGGGUA", "self-cleavage": 1}
{"variant": "GUUAGCGGUCAUAGGCCAUGGAAACUAGGAGCACCAUUUCGCUGCCAGUGAGGAAAUGAGCAAAGAAAUUCUGGGCCAGGCAGGCAUCAAAAGAAGUAGUCUUGCGCUCAACCAGAAAGUCUGUAAUCAUUUUAAGGGUA", "self-cleavage": 0.93}
{"variant": "GUUAGCGGUCAUAGGCCAUGGAAACUAGGAGCUCCAUUUCGCUGCCAGUGAAGAAAUGAACAAAGAAAAUCUGGGCCAGGCAGGCAUCAAAAGAAAUAGUCUUGCGCCCAACCAGAAAGUCUGUAAUCAUUUUAAGGGUA", "self-cleavage": 0}
{"variant": "GUUAGCGGUCAUAGGCCAUGGAAACUAGGAGCGCCAUUUCGCUGCCAGUGAAGAAAUGAACAAGGAAAGUCUGGGCCAGGCAGGCAUCAAAAGAAAUAGUCCUGCGCUCAACCAGAGAGUCUGUAAUCAUUUUAAGGGCA", "self-cleavage": 1.26}
{"variant": "GUUAGCGGUCAUAGGCCAUGGAAACUAGGAGCACCAUUUCGCUGCCGGUGAAGAAAUGAACAAAGAAAAUCUGGGCCAGGCAGGCAUCAAAGGAAAUAGUCUUGCGCUCAACCAGAAAGUCUGUGAUCAUUUUAAGGGUA", "self-cleavage": 0.28}
{"variant": "GUUAGCGGUCAUAGGCCAUGGAAACUAGGUGCACCAUUUCGCUGCCAGUGAAGAAAUGAACAAAGAAAAUCUGGGCCAGGCAGGCAUCAAAAGAAAUAGUCUUGCGCUCAACCAGAAAGUCUGUAAUCAUUCUAAGGGUA", "self-cleavage": 0}
{"variant": "GUUAGCGGUCAUAGGCCAUGGAAACUAGGGGCACCAUUUCGCUGCCAGUGAGGAAAUGAACAAAGAGAAUCUGGGCCAGGCAGGCAUCAAAAGAAAUAGUCUUGCGCUCAACCAGAAAGUCUGUAAUCAUUUUAAGGGUA", "self-cleavage": 0.63}
{"variant": "GUUAGCGGUCAUAGGCCAUGGAAACUAGGAGCACCAUUUCGCUGCCAGUGUAGAAAUGAACAAAGAAAAUCUGGGCCAGGCAGGCAUCAAAGGAAAUAGUCUUGCGCUCAACCAGAAAGUCUGUGAUCAUUUUAAGGGUA", "self-cleavage": 0.21}
{"variant": "GUUAGCGGUCAUAGGCCAUGGAAACUAGGAGCGCCAUUUCGCAGCCAGUGAAGAAAUGGACAAAGAAAAUCUGGGCCAGGCAGGCAUCGAAAGAAAUAGUCUUGCGCCCAACCAGAAAGUCUGUAGUCAUUUUAAGGGUA", "self-cleavage": 0}
{"variant": "GUUAGCGGUCAUAGGCCAUGGAAACUAGGAGCACCAUUUCGCUGCCAGUGAAGUAAUGAACAAAGAAGAUCUGGGCCAGGCAGGCAUCAAAAGAAAUAGUCUUGCGCUCAACCAGAAAGUCUGUAAUCAUUUUAAGGGUA", "self-cleavage": 1.02}
